Reference: US20070299092A1, “Quinone Substituted Quinazoline and Quinoline Kinase Inhibitors” (Wyeth, priority 2004, published 2007)
Some entries of the source have several records that differ or are many. They are shown here; other results are not. The source may hold further records. Results that share an entry appear to be repeats (runs, samples, wells or individuals); a mean can stand among them.

System: Human umbilical vein endothelial cells (HUVEC)
Experiment: HUVEC proliferation assay, VEGF-dependent growth ([3H]-thymidine incorporation)
Format: cell-based
Description: Cells were plated into 96-well dishes (4000 cells per well) and allowed to attach overnight. HUVEC were rinsed one time with 100 μl of EBMc-V (EBM supplemented with all above components except serum or VEGF), then 50 ul of EBMc-V was added to cells. Compounds were prepared at 200× stocks in DMSO, diluted into EBMc-V media as 4× stocks, then 50 ul added to appropriate wells. Finally, 100 μl of 2×VEGF (100 ng/ml prepared in EBMc-V; final 50 ng/ml VEGF) was added to all VEGF-treated wells. EBMc-V (no VEGF) was added to negative control wells. Parallel compound-treated plates were prepared except that 100 μl of EGM2 media containing 2% serum but lacking VEGF (EGMc-V) was added. Cells were incubated for 4-5 days at 37° C.
DNA synthesis was assessed by thymidine incorporation. Cells were incubated for 5 hours in 1 μCi of [^3H]-thymidine (PerkinElmer) by addition of 10 ul of 0.1 μCi/ul thymidine prepared in PBS to each well. After incubation, media was aspirated and the cells trypsinized and collected onto a mat using a vacuum-based Micro Cell Harvester (Skatron). [^3H]-thymidine was counted in a liquid scintillation counter. Compounds evaluated for ability to inhibit VEGF-dependent growth of human umbilical vein endothelial cells (HUVEC).

## COCCOc1cc2ncnc(NC3=CC(=O)C(Oc4ccc(-n5ccnc5)cc4)=CC3=O)c2cc1OC [Example 26, 2-[4-(1H-imidazol-1-yl)phenoxy]-5-{[6-methoxy-7-(2-methoxyethoxy)quinazolin-4-yl]amino}benzo-1,4-quinone]
conc. 100 nM
  % Inhibition of VEGF-dependent growth of HUVEC: 10%, −5%, 43%, 9%, 7% [lines of one column]
conc. 1000 nM
  % Inhibition of VEGF-dependent growth of HUVEC: 12, 15, 34, 13, 20% [lines of one column]
